# From publication PMC4336329 (PLoS ONE, 2015)
# Hit rate of the full screen: of about 310,000 compounds, about 14,000 (4.5%) showed an effect of 50% or more. The effect is printed as a negative number. This is one part of the list.
# Target: human ether-à-go-go-related gene (hERG) potassium channel (human, UniProt Q12809)
# Assay: primary screen, population patch clamp on CHO cells stably expressing hERG
# 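Also: peak tail current of the secondary pulse compared with the same well before compound.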
# Sequence of human ether-à-go-go-related gene (hERG) potassium channel (Q12809 whole entry, looked up): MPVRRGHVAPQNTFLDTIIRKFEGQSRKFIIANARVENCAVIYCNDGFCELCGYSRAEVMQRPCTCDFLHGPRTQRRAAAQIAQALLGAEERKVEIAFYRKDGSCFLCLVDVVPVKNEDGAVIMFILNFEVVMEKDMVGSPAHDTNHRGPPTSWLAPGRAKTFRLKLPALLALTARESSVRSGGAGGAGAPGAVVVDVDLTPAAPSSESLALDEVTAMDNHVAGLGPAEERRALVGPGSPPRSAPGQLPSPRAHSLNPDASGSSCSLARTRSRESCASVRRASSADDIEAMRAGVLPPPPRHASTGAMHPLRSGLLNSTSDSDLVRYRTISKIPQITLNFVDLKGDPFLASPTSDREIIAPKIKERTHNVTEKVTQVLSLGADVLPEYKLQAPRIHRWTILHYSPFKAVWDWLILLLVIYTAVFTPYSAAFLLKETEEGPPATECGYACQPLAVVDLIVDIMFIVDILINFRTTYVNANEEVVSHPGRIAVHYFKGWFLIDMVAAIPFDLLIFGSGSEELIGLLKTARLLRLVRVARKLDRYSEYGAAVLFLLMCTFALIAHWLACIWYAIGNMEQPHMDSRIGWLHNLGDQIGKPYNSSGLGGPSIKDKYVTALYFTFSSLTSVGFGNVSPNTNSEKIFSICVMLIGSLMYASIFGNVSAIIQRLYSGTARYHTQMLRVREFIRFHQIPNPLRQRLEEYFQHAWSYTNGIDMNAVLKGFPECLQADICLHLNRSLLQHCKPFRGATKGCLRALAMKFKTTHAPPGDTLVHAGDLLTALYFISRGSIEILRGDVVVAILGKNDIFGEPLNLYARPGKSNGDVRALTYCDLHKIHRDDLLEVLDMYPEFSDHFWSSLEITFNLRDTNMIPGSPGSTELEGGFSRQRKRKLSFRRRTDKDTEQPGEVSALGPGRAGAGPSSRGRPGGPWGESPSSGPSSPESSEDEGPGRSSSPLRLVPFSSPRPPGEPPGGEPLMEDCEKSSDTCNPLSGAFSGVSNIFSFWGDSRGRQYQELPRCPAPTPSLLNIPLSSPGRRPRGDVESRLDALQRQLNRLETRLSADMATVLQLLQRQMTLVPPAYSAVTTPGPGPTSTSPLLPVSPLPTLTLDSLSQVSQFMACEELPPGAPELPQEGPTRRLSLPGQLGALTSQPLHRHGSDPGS
row,SMILES,"hERG current change (%, negative = inhibition) at 10uM"
1,CCCCN(C(=O)C1=NN(c2ccccc2)C(=O)CC1)c1c(N)n(CC(C)C)c(=O)[nH]c1=O,-3.93%
2,CSc1ccccc1NC(=O)CN(C)CC(=O)Nc1ccccc1N1CCOCC1,-8.94%
3,O=C(CN1C(=O)NC2(CCCC2)C1=O)Nc1ccc(Cl)cc1F,17.1%
4,O=C(NC(=S)Nc1ccc(Cc2ccncc2)cc1)c1ccccc1,-3.13%
5,CC1(C)CC(=O)C2=C(C1)Nc1ccccc1[S@]2=O,6.89%
6,CCOC(=O)Cc1csc(NC(=O)COc2ccccc2OC)n1,-14.2%
7,Cc1ccc(Nc2c(-c3ccccn3)nc3cc(C)ccn23)cc1,-48.1%
8,Cc1cc(NCCCn2ccnc2)n2ncc(-c3ccccc3)c2n1,-67.6%
9,Nc1c(-c2ccccc2)sc2ccc3ccccc3[n+]12.O=S(=O)([O-])c1ccccc1,-58.3%
10,Cc1nc2cc(N=NC3=C(O)CCCC3=O)ccc2s1,20.9%
11,O=C(Nc1nnc(C2CC2)s1)c1ccncc1,3.02%
12,COc1ccc(CC(C)Nc2cccc(SC)c2)cc1 (stereo not shown),13.5%
13,O=C(C1CCC(=O)N1Cc1cccs1)N1CCOCC1 (stereo not shown),13.1%
14,CCOC(=O)C1CCCN(C(=O)c2cn(CC(C)C)c(=O)c3cc(OC)c(OC)cc23)C1 (stereo not shown),5.47%
15,Cc1cccc(Cn2c(=O)c3c(nc4n3CCCN4Cc3ccccc3)n(C)c2=O)c1,-38.8%
16,N#C/C(=C\c1cccnc1)C(=O)Nc1ccc(O)cc1F,1.67%
17,CCc1ccc(NC(=O)C2CC=CCC2C(=O)O)cc1 (stereo not shown),3.28%
18,CCn1c(Cn2nnc(-c3ccccc3)n2)nnc1SCC(=O)Nc1ccccc1,-7.39%
19,COC(=O)C1=C(C)N(CCCC(=O)O)C(=O)NC1c1ccc(C#N)cc1 (stereo not shown),-23.6%
20,c1ccc(-n2nnnc2SCc2cccc(CSc3nnnn3-c3ccccc3)n2)cc1,-1.88%
21,COc1cc(=O)n(C)c2c(OCC(O)C(C)(C)O)cccc12 (stereo not shown),16.6%

row,SMILES,"hERG current change (%, negative = inhibition) at 10uM"
1,Cc1cc(C)c(S(=O)(=O)N2CCCOC2CNC(=O)C(=O)NCCCn2ccnc2)c(C)c1 (stereo not shown),-9.48%
2,COC(=O)C1=C(c2ccc(F)cc2OCc2ccccc2)C[C@@H]2CC[C@H]1N2C(=O)NCCN1CCOCC1,7.9%
3,CN(CCO)S(=O)(=O)c1ccc2c(c1)C(=NN)c1cc(S(=O)(=O)N(C)CCO)ccc1-2,9.76%
4,CCOC(CNC(=O)CCc1c(C)nc2ncnn2c1C)OCC,14%
5,CCCc1cc(=O)oc2cc(OCC(=O)Nc3ccc4c(c3)OCCO4)ccc12,6.15%
6,COc1ccc(/C=C/C(=O)Nc2nc(C)c(C(=O)N(C)C)s2)cc1,3.15%
7,COc1ccc(C(=O)ON=C2c3ccccc3-c3ccccc32)cc1OC,18.2%
8,CCOC(=O)NC(=O)CN1C(=O)NC(C)(c2ccccc2)C1=O (stereo not shown),-4.44%
9,O=C(CSc1nc2ccccc2nc1N1CCCC1)Nc1ccc(Cl)cc1,-19.8%
10,Cc1c(OCC(=O)NCCCn2ccnc2)ccc2c3c(c(=O)oc12)CCCC3,-48.2%
11,CCN(CC(=O)NCc1ccc(F)cc1)C(=O)CN1CCN(c2ccccc2OC)CC1,-61.4%
12,c1ccc2c(c1)CCN(c1ncnc3c1[nH]c1ccccc13)C2,-18.1%
13,O=c1c(N2CCOCC2)nsn1Cc1ccccc1,-4.28%
14,O=C(Nc1ccc(Cl)cc1)OCCn1nnnc1C(c1ccccc1Cl)N1CCOCC1 (stereo not shown),-24.9%
15,COc1ccc(CCNC(=O)COC(=O)COc2ccc(C#N)cc2)cc1,6.71%
16,CCCCC[n+]1ccn(C2=C([O-])c3ccccc3C(=O)/C2=N\S(=O)(=O)c2ccc(Br)cc2)c1,-39.1%
17,CCn1c(SCC(=O)c2ccccc2)nc2ccccc2c1=O,4.47%
18,CC1CCCN(Cc2c(O)ccc3c2O/C(=C\c2ccco2)C3=O)C1 (stereo not shown),-4.24%
19,CCOC(=O)CN1C(=O)N[C@@H](CCc2ccccc2)[C@@H](C(=O)OC)[C@H]1C,14.5%
20,CCOc1ccccc1N(CC(=O)NC(C)(C)C)C(=O)Cn1nnc(-c2ccc(C)o2)n1,-16%
21,Cc1ccc(-n2ncc(C(=O)NC3CC3)c2C2CCN(C(=O)OC(C)(C)C)CC2)cc1,4.64%

row,SMILES,"hERG current change (%, negative = inhibition) at 10uM"
1,CC(=O)Nc1ccccc1NS(=O)(=O)c1cccc([N+](=O)[O-])c1,17.6%
2,Cc1c(NC(=O)CSc2n[nH]c(-c3ccccc3)n2)c(=O)n(-c2ccccc2)n1C,3.93%
3,CCN(CC(=O)NCc1ccc(Cl)cc1)C(=O)C1CCN(S(=O)(=O)c2ccc(OC)c(OC)c2)CC1,-17%
4,COc1ccc2cc3cc(C(=O)N4CCN(Cc5ccc6c(c5)OCO6)CC4)oc3nc2c1,-4.89%
5,O=c1[nH]c(=O)n(CCc2ccc(F)cc2)c(O)c1C=NCCCn1ccnc1,-3.22%
6,COc1cc(NC(=O)CSc2ccc(-c3cccnc3)nn2)cc(OC)c1,7.83%
7,O=C(/C=C/c1ccc([N+](=O)[O-])cc1)NCCN1C(=O)S/C(=C\c2ccc(F)cc2)C1=O,8.85%
8,CCCCOc1ccc(S(=O)(=O)n2c(C)nc3ccccc32)cc1,0.0246%
9,Cc1noc(C)c1COc1ccc(C(=O)Nc2nnc(CC(C)C)s2)cc1,6.16%
10,CCCc1cc(=O)n2[nH]c(C)c(-c3ccc(Cl)cc3)c2n1,-46.9%
11,Cc1cc(C)nc(SCC(CSc2nc(C)cc(C)n2)C(=O)O)n1,18.9%
12,CCOC(=O)C1=C(C)N(C)C(=S)NC1c1ccccc1 (stereo not shown),-10%
13,COc1cc(C(=O)OCCn2c(=O)c3c(ncn3CCN(C)C)n(C)c2=O)cc(OC)c1OC.Cl,-2.6%
14,O=C(Nc1ccc(F)cc1F)NC1CCN(Cc2c(F)cccc2Cl)CC1,-0.0524%
15,CCN(Cc1ccc(OC)c(F)c1)C(=O)c1oc2ccccc2c1COC,-54.6%
16,CCc1nccn1S(=O)(=O)c1cc(C)c(OC)cc1C,-2.37%
17,O=C(NC1CCCCC1)C(c1ccc(F)cc1)N(Cc1ccco1)C(=O)c1csnn1 (stereo not shown),7.65%
18,O=C(O)c1ccc[n+](Cc2ccc([N+](=O)[O-])cc2)c1.[Br-],8.97%
19,CC1CCC(N2CCN(C(=O)COc3ccccc3)CC2)CC1.O=C(O)C(=O)O (stereo not shown),-31.4%
